Measurements published in PubChem BioAssay AID1645887 (National Center for Advancing Translational Sciences (NCATS), 2021).
Several values for one entry are separate records, joined by “and”; a condition that tells them apart may be missing. Equal values may be shown once. In all, about 16,000 compounds went through this assay and about 40 (0.2%) were called active. About 1% were inconclusive and are not listed. The call rests on the fitted dose curve; in most records, active means well fitted activation curve with a large enough effect; inconclusive means small, poorly fitted or top-dose-only effect, or another doubt; inactive means no such curve, though single readings can be large or run the other way. The list shows a part of the results.

Target: Rap guanine nucleotide exchange factor 4 (Homo sapiens) (UniProt Q8WZA2)
Assay: Validation qHTS for agonist of cAMP-regulated guanine nucleotide exchange factor 4 (EPAC2);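 further: exchange makes BODIPY-GDP fluorescence drop when released from Rap1B; series mostly up to about 150 µM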
Conditions: EPAC2 Rap1B BODIPY-GDP exchange, fluorescence; activation: hits give high values
Excerpt: Principle Investigator: Xiaodong Cheng Ph.D.
The University of Texas Medical Branch, […], TX
In multi-cellular eukaryotic organisms, the effects of cAMP are transduced by two ubiquitously-expressed intracellular cAMP receptors, the classic protein kinase A/cAMP-dependent protein kinase (PKA/cAPK) and the more recently discovered exchange protein directly activated by cAMP/cAMP-regulated guanine nucleotide exchange factor (EPAC/cAMP-GEF). Both PKA and EPAC are ubiquitously expressed in all tissues, and an increase in intracellular cAMP levels will lead to the activation of both PKA and EPAC. Therefore, careful dissections of the individual role and relative contribution of EPAC and PKA within the overall cAMP signaling in various model systems are critical for further elucidating the mechanism of cAMP signaling. To date no EPAC-specific antagonists and agonist, as well as isoform-specific agonists have been reported, and developing EPAC-specific pharmacological probes to determine the physiological functions that EPAC play in the overall cAMP-mediated signaling remains a major challenge within the research field. Furthermore, identified regulators of EPAC may lead to new mechanism-based therapeutic strategies specifically targeting the EPAC / cAMP-signaling components as EPAC has been implicated to play important roles in major human pathological conditions such as diabetes, heart disease, and cancer.
This qHTS will be used to screen the Molecular Libraries Small Molecule Repository (MLSMR) as a concentration-titration series using the NCGC unique quantitative screening (qHTS) platform to find activators for EPAC1. In addition, this assay will also be used as a counterscreen for the EPAC2 qHTS. This fluorescent based assay is developed and validated for EPAC1 that measures exchange using EPAC effector Rap1 complex with BODIPY-GDP, a GDP analog with a tethered fluorophores. Activators are identified by monitoring the change in fluorescence signal as the exchanged free BODIPY-GDP has a reduced fluorescence compared to Rap1-bound BODIPY-GDP. Increase in signal (activation) is the desired outcome for the EPAC1 agonist while no activity in this assay is desired for the EPAC2 agonist counterscreen.
[1] de Rooij, J., Zwartkruis, F. J., Verheijen, M. H., Cool, R. H., Nijman, S. M., Wittinghofer, A., and Bos, J.L. (1998) Nature 396, 474-477.
Briefly, three uL of reagents (100 nM EPAC2, 250 nM RAP1B-BODIPY-GDP, 50 uM GDP) were dispensed into a 1536-well Greiner black solid-bottom medium binding assay plate. Controls and test compounds (23 nL) were transferred to the plate via a Kalypsys pin tool equipped with a 1536-pin array. The plates were centrifuged at 1,000 rpm for 15 seconds followed by 5 minute incubation at room temperature. The assay plates were read at 5 minute intervals for 30 minutes in the ViewLux plate reader using 480nm excitation and 540nm emission filters. The results were normalized to the agonist positive control of 6.5 mM cAMP.
On the % scale 0 is the no-effect control and ±100 the full control effect.

UniProt Q8WZA2, sequence (Q8WZA2 whole entry, looked up): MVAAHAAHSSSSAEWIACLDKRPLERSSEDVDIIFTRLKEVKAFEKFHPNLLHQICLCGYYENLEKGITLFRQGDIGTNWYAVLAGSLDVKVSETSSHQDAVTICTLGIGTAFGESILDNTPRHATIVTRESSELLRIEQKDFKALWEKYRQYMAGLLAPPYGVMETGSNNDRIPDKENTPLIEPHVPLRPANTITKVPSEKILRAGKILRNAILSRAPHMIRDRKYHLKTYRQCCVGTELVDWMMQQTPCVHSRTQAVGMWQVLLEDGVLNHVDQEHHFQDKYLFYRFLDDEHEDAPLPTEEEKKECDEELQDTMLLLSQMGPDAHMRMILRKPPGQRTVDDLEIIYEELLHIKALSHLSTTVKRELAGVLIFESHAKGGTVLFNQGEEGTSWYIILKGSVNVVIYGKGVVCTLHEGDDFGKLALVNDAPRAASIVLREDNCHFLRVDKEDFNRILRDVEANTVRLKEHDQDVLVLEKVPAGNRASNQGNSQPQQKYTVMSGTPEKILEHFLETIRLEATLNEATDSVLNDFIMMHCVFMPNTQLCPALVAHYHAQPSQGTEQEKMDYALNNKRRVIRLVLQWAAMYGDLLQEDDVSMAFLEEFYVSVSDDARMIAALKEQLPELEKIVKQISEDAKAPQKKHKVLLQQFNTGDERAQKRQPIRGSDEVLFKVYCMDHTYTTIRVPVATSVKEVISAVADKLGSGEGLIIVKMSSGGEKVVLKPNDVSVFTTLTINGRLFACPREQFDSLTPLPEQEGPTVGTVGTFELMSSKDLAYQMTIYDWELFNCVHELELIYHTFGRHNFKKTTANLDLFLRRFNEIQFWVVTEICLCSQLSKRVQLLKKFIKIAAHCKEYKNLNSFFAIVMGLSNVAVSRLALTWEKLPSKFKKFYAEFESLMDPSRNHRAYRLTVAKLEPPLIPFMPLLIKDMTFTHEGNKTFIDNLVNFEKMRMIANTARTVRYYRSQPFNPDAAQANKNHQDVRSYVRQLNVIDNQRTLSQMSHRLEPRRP

activation, inactive:
C[C@@H]1c2ccccc2CN1CC1=NCCN1 -10%
COc1cc(C)c(CC/C(C)=C/C=C/C(C)=O)c(C)c1C -30.1%
Cc1ccccc1N=C1Nc2ccc(Cl)cc2N[C@]12C[C@H]1CCCC(=O)N3CC[C@@H](C2)[C@@H]13 -18.8%
COc1ccc(CNC(=O)c2cnn(-c3ncc4c(n3)-c3ccccc3CC4)c2C)cc1OC -6.01%
Cc1ncc2c(c1CNC(=O)c1ccsc1)CCN(C(=O)c1c(F)cccc1Cl)C2 -2.63%
COC(=O)C(C)c1ccc(C(=O)c2cccs2)cc1 (stereo not drawn) 11%
Cn1cccc1C(=O)N1CCC2(CCCN(C(c3ccccc3)c3ccccc3)C2)CC1 -5.91%
CCNc1ncc2nc(-c3ccc(Cl)cc3)c(=O)n(C[C@H]3CCCO3)c2n1 -0.505%
CCCCCCCCCc1ccc(OCCOCCO)cc1 -50.6%
O=C(C[n+]1cccc2cccc(O)c21)c1ccc(F)cc1 -28.9%
COC(=O)[C@@H]1CCCN1C(=O)c1cc(NC(=O)c2ccccc2)cc2ncn(C3CCCC3)c12 -1.66%
Cc1nc2cnc(Oc3cccc(Cl)c3)nc2n(C[C@H]2CCCO2)c1=O -8.34%
CC(C)NC(=O)N1CC[C@@]2(CCCN(C(=O)Oc3ccccc3)C2)C1 13.4%
CO[C@]1(NC(=O)CSC(F)F)C(=O)N2C(C(=O)O)=C(CSc3nnnn3CCO)CO[C@H]21 17.6%
COCCn1c(=O)c(-c2cc(F)cc(F)c2)nc2cnc(N(C)C)nc21 -8.66%
O=c1c(O)c(-c2ccccc2)oc2ccc3occc3c12 -9.12%
CS(=O)(=O)N1CCC2(CCN(C(=O)Nc3cccc(F)c3)CC2)CC1 -34.8%
N#Cc1cccc(NC(=O)N2CC[C@@]3(CCCN(C(=O)c4ccco4)C3)C2)c1 -12.5%
Cc1csc(-c2coc3cc(O[C@@H]4O[C@H](CO)[C@@H](O)[C@@H](O)[C@H]4O)ccc3c2=O)n1 -20.1%
COc1ccc(C[C@H](C)NC[C@@H](O)c2ccc(O)c(NC=O)c2)cc1 -20.4%
COc1ccc(CCNc2ncnc3sc(C(=O)N(C)C)c(C)c23)cc1OC -1.58%
O=C(OCc1ccccc1)c1ccccc1 -4.07% and -26.1%
N#C/C(=C\c1ccc(O)c(O)c1)C(=O)NCCCNC(=O)/C(C#N)=C/c1ccc(O)c(O)c1 -26.1%
OC(CCN1CCCCC1)(c1ccccc1)C1CCCCC1 (stereo not drawn) 4.53% and 11.2%
CN(C)C(=O)c1ccc(-c2nccc(-n3ccnc3)n2)cc1 -16.1%
CCNc1ncc2nc(-c3cc(F)cc(F)c3)c(=O)n(Cc3cccs3)c2n1 -21.6%
COCc1c(C(=O)N2CCN(C)CC2)cnn1-c1ncc2c(n1)-c1ccccc1CCC2 -18.3%
Cc1ncc2c(c1CNC(=O)c1cncs1)CCN(C(=O)c1cc(F)c(F)cc1F)C2 3.7%
COc1ccc(-n2c(=O)c(CCc3ccccc3)nc3cncnc32)cc1 -0.419%
CC(=O)Nc1cc(C(=O)N2CC3(C)CC2CC(C)(C)C3)cc2ncn(CCc3ccccn3)c12 (stereo not drawn) -8.27%
N#Cc1ccc(CN2CCC3(CC2)CCN(C(=O)c2ccco2)CC3)cc1 -3.74%
Cc1ccc2c(Cl)cc(Cl)c(O)c2n1 -15% and 2.22%
COc1ccccc1CNc1cc(-c2ccoc2)ncn1 -2.56%
COc1ccc2[nH]cc(CCNc3nc(-c4ccc(N(C)C)cc4)nc4ccccc34)c2c1 7.36%
CC(C)C[C@@H](CO)N1CCN(Cc2ccc(Br)cc2)CCC1=O -24.8%
N[C@H](C(=O)O)[C@H](OCc1ccccc1)C(=O)O -19.4%
COc1ccc2c(c1)CCc1cnc(-n3ncc(C(=O)NCC(C)(C)CN(C)C)c3C)nc1-2 1.5%
CN(C)CC/C=C1/c2ccccc2CSc2ccccc21 6.43%
COc1ccc(SCCN2CC[C@@H](NC(=O)OCc3ccccc3)CCC2=O)cc1 -14.1%
O=C(c1nc2ncccn2n1)N1CCOc2ccc(C(O)C(c3ccccc3)c3ccccc3)cc2C1 (stereo not drawn) 2.27%
C[C@H](N=C(NC#N)Nc1ccncc1)C(C)(C)C -16.7%
CN1C[C@H](C(=O)N[C@@]2(C)O[C@@]3(O)C4CCCN4C(=O)C(Cc4ccccc4)N3C2=O)C[C@H]2c3cccc4[nH]cc(c34)C[C@H]21 (stereo partly drawn) -3.24%
O=S1(=O)CCOCCCN1Cc1ccccc1F -9.79%
